Data reported in the antibiotic and cytotoxicity screens of Wong et al. (2023).
This is one part of the list.

test system: S. aureus RN4220; test: growth inhibition call (relative growth <= 0.2); settings: 50 µM

Growth inhibition call, inactive:
Cc1noc(C)c1NC(=O)N(C)C[C@@H]1Oc2ccc(NS(=O)(=O)c3ccccc3)cc2C(=O)N([C@@H](C)CO)C[C@@H]1C
Cc1ccc(S(=O)(=O)N2C[C@@H](O)COC[C@H]3O[C@H](CC(=O)NCc4ccccc4Cl)CC[C@@H]32)cc1
C[C@@H]1CN([C@@H](C)CO)C(=O)c2cc(C#CC3(O)CCCC3)cnc2O[C@H]1CN(C)C(=O)Nc1ccc2c(c1)OCO2
COC(=O)C[C@H]1CC[C@@H](N)[C@H](CO)O1
Cc1noc(C)c1NC(=O)Nc1ccc2c(c1)C(=O)N([C@@H](C)CO)C[C@@H](C)[C@H](CN(C)C(=O)NC1CCCCC1)OCCCC[C@@H](C)O2
CCn1c2c(ccc1=O)C[C@H](N)CC2
COc1ccc(NC(=O)Nc2ccc3c(c2)C(=O)N([C@@H](C)CO)C[C@H](C)[C@H](CN(C)Cc2ccc(Oc4ccccc4)cc2)O3)cc1
O=C(O)C[C@@H]1CC[C@H]2[C@@H](COC[C@@H](O)CN2S(=O)(=O)c2ccc(F)cc2)O1
Cn1cnc(S(=O)(=O)N[C@H]2CC[C@H](CC(=O)N3CCN(c4ccccc4)CC3)O[C@@H]2CO)c1
COc1ccc(NC(=O)N(C)C[C@@H]2OCCCC[C@H](C)Oc3ccc(NC(=O)Nc4c(C)noc4C)cc3C(=O)N([C@@H](C)CO)C[C@H]2C)cc1
C[C@@H]1CN([C@H](C)CO)C(=O)c2cc(C#CCN(C)C)cnc2O[C@@H]1CN(C)Cc1cccc(C(=O)O)c1
